± gives the standard deviation of the averaged measurements. Restriction of a single-cycle SIVsab GFP reporter by TRIM5α v1-loop variants in CRFK cells. Human variants: read share among cells still uninfected after two challenges over input, higher = gained restriction. Rhesus variants: share among infected cells over input, higher = lost restriction. Reporter dose not given per row. No active / inactive call per row; the paper calls a change when both replicates lie above its controls (mean + 2 SD of stop or wild-type variants, or the top frameshift score). Residues outside the varied loop are taken from Swiss-Prot. The paper reads the human single-substitution scores as noise; they and the rhesus combinations repeat poorly (rank correlation 0.3 to 0.4), indel scores repeat only for the top variants, rhesus substitutions well (0.9).

The subject of this data set is SIVsab (simian immunodeficiency virus of sabaeus monkeys), single-cycle GFP reporter, in CRFK cells. As to the kind of experiment: enrichment among uninfected cells over input (fold); higher = stronger restriction. Particulars: library: human / rhesus combinations. Here is the method:
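Pools of CRFK cells expressing variants of the TRIM5α v1 loop were challenged with the single-cycle reporter, sorted by GFP and sequenced; mean of two replicates.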
On to “MASGILVNVKEEVTCPICLELLTQPLSLDCGHSFCQACLTANHKKSMLDKGESSCPVCRISYQPENIRPNRHVANIVEKLREVKLSPEGQKVDHCARHGEKLLLFCQEDGKVICWLCERSQEHRGHHTFLTEEVAREYQVKLQAALEMLRQKQQEAEELEADIREEKASWKTQIQYDKTNVLADFEQLRDILDWEESNELQNLEKEEEDILKSLTNSETEMVQQTQSLRELISDLEHRLQGSVMELLQGVDGVIKRTENVTLKKPETFPKNQRRVFRAPDLKGMLEVFRELTDVRRYWVDVTVAPNNISCAVISEDKRQVSSPKPQIIYQARGTRFQTLVNFNYCTGILGSQSITSGKHYWEVDVSKKTAWILGVCAGFQPDAMCNIEKNENYQPKYGYWVIGLEEGVKCSAFQDSSFHTPSVPFIVPLSVIICPDRVGVFLDYEACTVSFFNITNHGFLIYKFSHCSFSQPVFPYLNPRKCGVPMTLCSPSS [human TRIM5α, 330-340 = QARGTRFQTLV]”, for which the enrichment was found to be 3.12 ± 3.5.
Consider “MASGILVNVKEEVTCPICLELLTQPLSLDCGHSFCQACLTANHKKSMLDKGESSCPVCRISYQPENIRPNRHVANIVEKLREVKLSPEGQKVDHCARHGEKLLLFCQEDGKVICWLCERSQEHRGHHTFLTEEVAREYQVKLQAALEMLRQKQQEAEELEADIREEKASWKTQIQYDKTNVLADFEQLRDILDWEESNELQNLEKEEEDILKSLTNSETEMVQQTQSLRELISDLEHRLQGSVMELLQGVDGVIKRTENVTLKKPETFPKNQRRVFRAPDLKGMLEVFRELTDVRRYWVDVTVAPNNISCAVISEDKRQVSSPKPQIIYQARGTRFTFPSFTNFNYCTGILGSQSITSGKHYWEVDVSKKTAWILGVCAGFQPDAMCNIEKNENYQPKYGYWVIGLEEGVKCSAFQDSSFHTPSVPFIVPLSVIICPDRVGVFLDYEACTVSFFNITNHGFLIYKFSHCSFSQPVFPYLNPRKCGVPMTLCSPSS [human TRIM5α, 330-340 = QARGTRFTFPSFT]”, for which the enrichment came to 0.117 ± 0.036.
As to “MASGILVNVKEEVTCPICLELLTQPLSLDCGHSFCQACLTANHKKSMLDKGESSCPVCRISYQPENIRPNRHVANIVEKLREVKLSPEGQKVDHCARHGEKLLLFCQEDGKVICWLCERSQEHRGHHTFLTEEVAREYQVKLQAALEMLRQKQQEAEELEADIREEKASWKTQIQYDKTNVLADFEQLRDILDWEESNELQNLEKEEEDILKSLTNSETEMVQQTQSLRELISDLEHRLQGSVMELLQGVDGVIKRTENVTLKKPETFPKNQRRVFRAPDLKGMLEVFRELTDVRRYWVDVTVAPNNISCAVISEDKRQVSSPKPQIIYQARGTRFTFPSFVNFNYCTGILGSQSITSGKHYWEVDVSKKTAWILGVCAGFQPDAMCNIEKNENYQPKYGYWVIGLEEGVKCSAFQDSSFHTPSVPFIVPLSVIICPDRVGVFLDYEACTVSFFNITNHGFLIYKFSHCSFSQPVFPYLNPRKCGVPMTLCSPSS [human TRIM5α, 330-340 = QARGTRFTFPSFV]”, the enrichment was 0.0841 ± 0.013.
Next, “MASGILVNVKEEVTCPICLELLTQPLSLDCGHSFCQACLTANHKKSMLDKGESSCPVCRISYQPENIRPNRHVANIVEKLREVKLSPEGQKVDHCARHGEKLLLFCQEDGKVICWLCERSQEHRGHHTFLTEEVAREYQVKLQAALEMLRQKQQEAEELEADIREEKASWKTQIQYDKTNVLADFEQLRDILDWEESNELQNLEKEEEDILKSLTNSETEMVQQTQSLRELISDLEHRLQGSVMELLQGVDGVIKRTENVTLKKPETFPKNQRRVFRAPDLKGMLEVFRELTDVRRYWVDVTVAPNNISCAVISEDKRQVSSPKPQIIYQARGTRFTFPSLTNFNYCTGILGSQSITSGKHYWEVDVSKKTAWILGVCAGFQPDAMCNIEKNENYQPKYGYWVIGLEEGVKCSAFQDSSFHTPSVPFIVPLSVIICPDRVGVFLDYEACTVSFFNITNHGFLIYKFSHCSFSQPVFPYLNPRKCGVPMTLCSPSS [human TRIM5α, 330-340 = QARGTRFTFPSLT]”: 0.437 ± 0.017.
As for “MASGILVNVKEEVTCPICLELLTQPLSLDCGHSFCQACLTANHKKSMLDKGESSCPVCRISYQPENIRPNRHVANIVEKLREVKLSPEGQKVDHCARHGEKLLLFCQEDGKVICWLCERSQEHRGHHTFLTEEVAREYQVKLQAALEMLRQKQQEAEELEADIREEKASWKTQIQYDKTNVLADFEQLRDILDWEESNELQNLEKEEEDILKSLTNSETEMVQQTQSLRELISDLEHRLQGSVMELLQGVDGVIKRTENVTLKKPETFPKNQRRVFRAPDLKGMLEVFRELTDVRRYWVDVTVAPNNISCAVISEDKRQVSSPKPQIIYQARGTRFTFPSLVNFNYCTGILGSQSITSGKHYWEVDVSKKTAWILGVCAGFQPDAMCNIEKNENYQPKYGYWVIGLEEGVKCSAFQDSSFHTPSVPFIVPLSVIICPDRVGVFLDYEACTVSFFNITNHGFLIYKFSHCSFSQPVFPYLNPRKCGVPMTLCSPSS [human TRIM5α, 330-340 = QARGTRFTFPSLV]”, the enrichment stood at 0.295 ± 0.08.
Next, “MASGILVNVKEEVTCPICLELLTQPLSLDCGHSFCQACLTANHKKSMLDKGESSCPVCRISYQPENIRPNRHVANIVEKLREVKLSPEGQKVDHCARHGEKLLLFCQEDGKVICWLCERSQEHRGHHTFLTEEVAREYQVKLQAALEMLRQKQQEAEELEADIREEKASWKTQIQYDKTNVLADFEQLRDILDWEESNELQNLEKEEEDILKSLTNSETEMVQQTQSLRELISDLEHRLQGSVMELLQGVDGVIKRTENVTLKKPETFPKNQRRVFRAPDLKGMLEVFRELTDVRRYWVDVTVAPNNISCAVISEDKRQVSSPKPQIIYQARGTRFTFPTFTNFNYCTGILGSQSITSGKHYWEVDVSKKTAWILGVCAGFQPDAMCNIEKNENYQPKYGYWVIGLEEGVKCSAFQDSSFHTPSVPFIVPLSVIICPDRVGVFLDYEACTVSFFNITNHGFLIYKFSHCSFSQPVFPYLNPRKCGVPMTLCSPSS [human TRIM5α, 330-340 = QARGTRFTFPTFT]”: 0.116 ± 0.057.
On to “MASGILVNVKEEVTCPICLELLTQPLSLDCGHSFCQACLTANHKKSMLDKGESSCPVCRISYQPENIRPNRHVANIVEKLREVKLSPEGQKVDHCARHGEKLLLFCQEDGKVICWLCERSQEHRGHHTFLTEEVAREYQVKLQAALEMLRQKQQEAEELEADIREEKASWKTQIQYDKTNVLADFEQLRDILDWEESNELQNLEKEEEDILKSLTNSETEMVQQTQSLRELISDLEHRLQGSVMELLQGVDGVIKRTENVTLKKPETFPKNQRRVFRAPDLKGMLEVFRELTDVRRYWVDVTVAPNNISCAVISEDKRQVSSPKPQIIYQARGTRFTFPTFVNFNYCTGILGSQSITSGKHYWEVDVSKKTAWILGVCAGFQPDAMCNIEKNENYQPKYGYWVIGLEEGVKCSAFQDSSFHTPSVPFIVPLSVIICPDRVGVFLDYEACTVSFFNITNHGFLIYKFSHCSFSQPVFPYLNPRKCGVPMTLCSPSS [human TRIM5α, 330-340 = QARGTRFTFPTFV]”, for which the enrichment was determined as 0.291 ± 0.063.
With “MASGILVNVKEEVTCPICLELLTQPLSLDCGHSFCQACLTANHKKSMLDKGESSCPVCRISYQPENIRPNRHVANIVEKLREVKLSPEGQKVDHCARHGEKLLLFCQEDGKVICWLCERSQEHRGHHTFLTEEVAREYQVKLQAALEMLRQKQQEAEELEADIREEKASWKTQIQYDKTNVLADFEQLRDILDWEESNELQNLEKEEEDILKSLTNSETEMVQQTQSLRELISDLEHRLQGSVMELLQGVDGVIKRTENVTLKKPETFPKNQRRVFRAPDLKGMLEVFRELTDVRRYWVDVTVAPNNISCAVISEDKRQVSSPKPQIIYQARGTRFTFPTLTNFNYCTGILGSQSITSGKHYWEVDVSKKTAWILGVCAGFQPDAMCNIEKNENYQPKYGYWVIGLEEGVKCSAFQDSSFHTPSVPFIVPLSVIICPDRVGVFLDYEACTVSFFNITNHGFLIYKFSHCSFSQPVFPYLNPRKCGVPMTLCSPSS [human TRIM5α, 330-340 = QARGTRFTFPTLT]”, the enrichment amounted to 0.131 ± 0.11.
Regarding “MASGILVNVKEEVTCPICLELLTQPLSLDCGHSFCQACLTANHKKSMLDKGESSCPVCRISYQPENIRPNRHVANIVEKLREVKLSPEGQKVDHCARHGEKLLLFCQEDGKVICWLCERSQEHRGHHTFLTEEVAREYQVKLQAALEMLRQKQQEAEELEADIREEKASWKTQIQYDKTNVLADFEQLRDILDWEESNELQNLEKEEEDILKSLTNSETEMVQQTQSLRELISDLEHRLQGSVMELLQGVDGVIKRTENVTLKKPETFPKNQRRVFRAPDLKGMLEVFRELTDVRRYWVDVTVAPNNISCAVISEDKRQVSSPKPQIIYQARGTRFTFPTLVNFNYCTGILGSQSITSGKHYWEVDVSKKTAWILGVCAGFQPDAMCNIEKNENYQPKYGYWVIGLEEGVKCSAFQDSSFHTPSVPFIVPLSVIICPDRVGVFLDYEACTVSFFNITNHGFLIYKFSHCSFSQPVFPYLNPRKCGVPMTLCSPSS [human TRIM5α, 330-340 = QARGTRFTFPTLV]”, the enrichment is 0.354 ± 0.15.
As for “MASGILVNVKEEVTCPICLELLTQPLSLDCGHSFCQACLTANHKKSMLDKGESSCPVCRISYQPENIRPNRHVANIVEKLREVKLSPEGQKVDHCARHGEKLLLFCQEDGKVICWLCERSQEHRGHHTFLTEEVAREYQVKLQAALEMLRQKQQEAEELEADIREEKASWKTQIQYDKTNVLADFEQLRDILDWEESNELQNLEKEEEDILKSLTNSETEMVQQTQSLRELISDLEHRLQGSVMELLQGVDGVIKRTENVTLKKPETFPKNQRRVFRAPDLKGMLEVFRELTDVRRYWVDVTVAPNNISCAVISEDKRQVSSPKPQIIYQARGTRFTFQSFTNFNYCTGILGSQSITSGKHYWEVDVSKKTAWILGVCAGFQPDAMCNIEKNENYQPKYGYWVIGLEEGVKCSAFQDSSFHTPSVPFIVPLSVIICPDRVGVFLDYEACTVSFFNITNHGFLIYKFSHCSFSQPVFPYLNPRKCGVPMTLCSPSS [human TRIM5α, 330-340 = QARGTRFTFQSFT]”, the enrichment came out at 0.283 ± 0.12.
In the case of “MASGILVNVKEEVTCPICLELLTQPLSLDCGHSFCQACLTANHKKSMLDKGESSCPVCRISYQPENIRPNRHVANIVEKLREVKLSPEGQKVDHCARHGEKLLLFCQEDGKVICWLCERSQEHRGHHTFLTEEVAREYQVKLQAALEMLRQKQQEAEELEADIREEKASWKTQIQYDKTNVLADFEQLRDILDWEESNELQNLEKEEEDILKSLTNSETEMVQQTQSLRELISDLEHRLQGSVMELLQGVDGVIKRTENVTLKKPETFPKNQRRVFRAPDLKGMLEVFRELTDVRRYWVDVTVAPNNISCAVISEDKRQVSSPKPQIIYQARGTRFTFQSFVNFNYCTGILGSQSITSGKHYWEVDVSKKTAWILGVCAGFQPDAMCNIEKNENYQPKYGYWVIGLEEGVKCSAFQDSSFHTPSVPFIVPLSVIICPDRVGVFLDYEACTVSFFNITNHGFLIYKFSHCSFSQPVFPYLNPRKCGVPMTLCSPSS [human TRIM5α, 330-340 = QARGTRFTFQSFV]”, the enrichment was found to be 0.175 ± 0.17.
Next, “MASGILVNVKEEVTCPICLELLTQPLSLDCGHSFCQACLTANHKKSMLDKGESSCPVCRISYQPENIRPNRHVANIVEKLREVKLSPEGQKVDHCARHGEKLLLFCQEDGKVICWLCERSQEHRGHHTFLTEEVAREYQVKLQAALEMLRQKQQEAEELEADIREEKASWKTQIQYDKTNVLADFEQLRDILDWEESNELQNLEKEEEDILKSLTNSETEMVQQTQSLRELISDLEHRLQGSVMELLQGVDGVIKRTENVTLKKPETFPKNQRRVFRAPDLKGMLEVFRELTDVRRYWVDVTVAPNNISCAVISEDKRQVSSPKPQIIYQARGTRFTFQSLTNFNYCTGILGSQSITSGKHYWEVDVSKKTAWILGVCAGFQPDAMCNIEKNENYQPKYGYWVIGLEEGVKCSAFQDSSFHTPSVPFIVPLSVIICPDRVGVFLDYEACTVSFFNITNHGFLIYKFSHCSFSQPVFPYLNPRKCGVPMTLCSPSS [human TRIM5α, 330-340 = QARGTRFTFQSLT]”: 0.184 ± 0.011.
